43 compounds from ChEMBL document CHEMBL4888484, “Replenishing the malaria drug discovery pipeline: Screening and hit evaluation of the MMV Hit Generation Library 1 (HGL1) against asexual blood stage Plasmodium falciparum ,using a nano luciferase reporter read-out” (2022) can be followed below.

The whole screen tested about 150,000 compounds, of which about 540 (0.36%) showed an effect of 50% or more. The list shows a part of the results.

The subject of this assay is Plasmodium falciparum. The assay is described as follows: Primary screen in NF54 nanoGlo assay, in single point, at 2uM, 72h; a lower Z score goes with more inhibition. It is filed as functional, Erythrocyte. As to conditions: timepoint 72 hour.
The term % Inhibition denotes the relative decrease from the control value, in per cent. With `CC(=O)NC1CCC(Nc2cnn(CCC(C)C)c2C)CC1` (stereo unspecified), the “% Inhibition” value is -6% and the Z score came to 0.63.

For `Cc1ccc2[nH]cc(CCC(=O)N3CCc4ccccc4[C@@H]3C(=O)O)c2c1`, the “% Inhibition” value was -1% and the Z score came out at 0.17.

Take `COc1cccc(Cn2cccc(N)c2=O)n1`: the “% Inhibition” value is -9% and the Z score stood at 1.36.

For `COc1cccc2ncnc(N3CCC[C@H](n4cc(CO)nn4)C3)c12`, the “% Inhibition” value was -5% and the Z score is given as 0.48.

Turning to `CCOc1cc([C@@H]2c3c(-c4cc(C)cc(C)c4O)n[nH]c3C(=O)N2Cc2ccc(F)cc2)ccc1O`, the “% Inhibition” value is -5% and the Z score is on record as 0.61.

`Cc1cc(F)ccc1CC(=O)N1CCC[C@H](c2ccn(CC(=O)O)n2)C1`: the “% Inhibition” value is recorded as -10% and the Z score was 1.51.

With `CCNCc1c(Cl)cccc1Cl`, the “% Inhibition” value is on record as -8% and the Z score is reported as 0.92.

Take `Cc1cc(-c2nnn(CC[C@H]3CCCC3=O)n2)ccc1F`: the “% Inhibition” value is -8% and the Z score is on record as 0.85.

On to `CC1CN(C(=O)c2cnc3[nH]c(=O)[nH]c3c2)CC1(C)CO` (stereo unspecified), for which the “% Inhibition” value is reported as -1% and the Z score was 0.12.

On to `COCCOCCCC(=O)N(CC1CC1C)C(C)C` (stereo unspecified), for which the “% Inhibition” value was -18% and the Z score is given as 2.34.

In the case of `Cc1nc(N2C[C@H]3CCC[C@@H](C3)C2)c2ccccc2n1`, the “% Inhibition” value is recorded as -9% and the Z score is 1.54.

As for `CCS(=O)(=O)NCCc1ccc(S(=O)(=O)Nc2ccc(C(C)(C)C)nn2)s1`, the “% Inhibition” value is recorded as -1% and the Z score turned out to be 0.12.

With `CCC1(CC)CCC(NC(=O)[C@@H]2CCCCC(=O)N2)CC1`, the “% Inhibition” value is given as 35% and the Z score is on record as -5.02.

On to `Cc1cccc(NC(=O)Cn2cc(S(=O)(=O)N3CCCCCC3)ccc2=O)c1C`, for which the “% Inhibition” value is -9% and the Z score came to 1.77.

Take `C[C@H]1CC(=O)Nc2ccccc2N1C(=O)c1ccc(S(=O)(=O)N2CCOCC2)cc1`: the “% Inhibition” value is recorded as -15% and the Z score is given as 1.27.

On to `O=C(CC(c1ccccc1)c1ccccc1)N1CCc2ccccc21`, for which the “% Inhibition” value came out at 4% and the Z score is -0.52.

For `Cc1nc(C2(NS(=O)(=O)c3c(C)noc3C)CCC2)no1`, the “% Inhibition” value was -13% and the Z score is recorded as 1.64.

Turning to `NC(=NOCC(=O)Nc1ccc2c(c1)OCCCO2)c1cccs1`, the “% Inhibition” value was -9% and the Z score worked out at 0.86.

`COc1c(NC(=O)C2=C(C)Oc3ccccc3C2)c(C)nn1C`: the “% Inhibition” value is 2% and the Z score is given as -0.17.

With `CCC(=O)Nc1ccc(-c2ccc(OC)nc2)c(C)n1`, the “% Inhibition” value is recorded as 1% and the Z score is given as -0.1.

On to `Cc1ccc(Oc2ncccc2CNC(=O)CCn2cncn2)c(F)c1F`, for which the “% Inhibition” value was 8% and the Z score is on record as -0.91.

Regarding `O=C1[C@H]2CN(c3ncnc4nc[nH]c34)C[C@H]2C(=O)N1Cc1ccccc1`, the “% Inhibition” value is listed as -7% and the Z score is on record as 1.21.

On to `Cc1ccc(Br)c(C(=O)NCCCO[C@H]2CCOC2)c1`, for which the “% Inhibition” value is reported as 10% and the Z score is on record as -1.55.

As to `Cc1cccc(CNCc2cc(NS(C)(=O)=O)cc(C(=O)Nc3ccccc3)c2)c1`, the “% Inhibition” value is reported as 18% and the Z score is -3.39.

Turning to `COc1cc2c(cc1CN1CCCC[C@H](N(C)C)C1)OCCCO2`, the “% Inhibition” value is reported as -1% and the Z score is reported as 0.12.

On to `CCOc1ccccc1CNC(=O)C1CCN(c2ncnc3c2oc2ccccc23)CC1`, for which the “% Inhibition” value was -10% and the Z score is on record as 1.17.

For `c1nc(C2CCC2)cc(N2CCOCC2)n1`, the “% Inhibition” value is given as 3% and the Z score is on record as -0.31.

With `CCOC(=O)CC1(N(C)C(=O)CNC(=O)OC)CCCCC1`, the “% Inhibition” value is -4% and the Z score is 0.52.

For `C[C@@H](CNC(=O)CC1CCNCC1)c1ccc(F)cc1F`, the “% Inhibition” value is reported as -7% and the Z score is 0.7.

For the compound `Cc1ccc(OCC(=O)NCCC2CCN(C(=O)Nc3ccc(F)cc3)CC2)cc1`, the “% Inhibition” value was found to be 2% and the Z score is listed as -0.25.

On to `CN1CCC(NC2(c3ccc(Br)cc3)CC2)CC1`, for which the “% Inhibition” value was -5% and the Z score came out at 0.94.

On to `Cc1oc(C)c(C(=O)N(C)C2(C#N)CCC2)c1Br`, for which the “% Inhibition” value is listed as -15% and the Z score is reported as 1.56.

`CN(CCC(=O)NCc1ccc(F)cc1)CC1CCCC1`: the “% Inhibition” value is recorded as -8% and the Z score stood at 1.31.

For the compound `O=C(c1ccc2cc[nH]c2c1)N1CC(Nc2ncccn2)C1`, the “% Inhibition” value is given as -16% and the Z score came out at 1.86.

In the case of `COC[C@]1(C(=O)NCCc2cccc3cccnc23)CCOC1`, the “% Inhibition” value is -12% and the Z score amounted to 1.53.

As to `COc1ccc(CN2C[C@H]3CN(Cc4nccs4)CCN3C2=O)cc1`, the “% Inhibition” value turned out to be 17% and the Z score is listed as -1.97.

With `N#CC1(c2ccc3c(c2)OCO3)CCCCCC1`, the “% Inhibition” value is given as -8% and the Z score came out at 0.76.

Turning to `NC(=O)C1CCCCC1Nc1ccc2nccnc2n1` (stereo unspecified), the “% Inhibition” value is -11% and the Z score came out at 1.3.

For the compound `CCc1nnc(NCCc2nc(-c3cccnc3)n[nH]2)o1`, the “% Inhibition” value is -9% and the Z score is listed as 1.15.

As to `Cn1cc(C(=O)N2CCC[C@H](n3cccn3)C2)c(-c2ccncc2)n1`, the “% Inhibition” value is -1% and the Z score is 0.2.

For `COc1ccc(OC)c([C@@H](O)CNc2ccncc2Cl)c1`, the “% Inhibition” value was -9% and the Z score worked out at 1.18.

With `COCC(C)(C)N1CCN(Cc2ccsc2C(=O)O)CC1`, the “% Inhibition” value turned out to be 5% and the Z score is -0.68.

As to `COc1cc(CNC2CCCC2)cc(Cl)c1OCc1ccc(C)cc1`, the “% Inhibition” value is -8% and the Z score is on record as 1.
